This is one part of the list. These are noisy estimates, calculated here from bound and input reads.
target: T1, Pho4 (S. cerevisiae) (UniProt P07270); assay: relative binding free energy (BET-seq); higher = weaker binding; settings: reference: library average
T1 sequence: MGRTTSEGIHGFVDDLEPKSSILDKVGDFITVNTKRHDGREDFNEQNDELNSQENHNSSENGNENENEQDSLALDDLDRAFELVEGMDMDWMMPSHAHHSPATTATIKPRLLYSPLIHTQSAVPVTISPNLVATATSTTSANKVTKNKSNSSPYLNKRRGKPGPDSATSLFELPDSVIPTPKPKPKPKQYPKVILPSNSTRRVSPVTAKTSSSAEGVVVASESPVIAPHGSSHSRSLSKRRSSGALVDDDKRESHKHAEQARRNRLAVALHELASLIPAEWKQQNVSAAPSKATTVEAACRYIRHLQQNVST

Sequence | relative binding free energy [kcal/mol]
ATGTACACGTGATGTG | 0.33
TCCGTCACGTGGGGGA | 0.01
TCAGTCACGTGGGTTA | 0.1
GTAGACACGTGGTTCG | 0.06
TATGGCACGTGAGCTG | -0.01
ATGTGCACGTGACTTG | 0.03
TGGTACACGTGGGATG | 0.03
ATATTCACGTGGGGAG | 0.21
TTCAGCACGTGGTTGA | -0.09
TGCCTCACGTGGTGGG | 0.02
GATGGCACGTGTGGGG | 0
GACATCACGTGGTTTG | 0.23
ATGCTCACGTGGTAGA | 0.14
TTCAGCACGTGTTGCG | -0.07
AGCGTCACGTGGAGGT | 0.03
AGGATCACGTGGGAGG | 0.1
TCTAACACGTGGTGGA | 0
CGTGACACGTGTTAGT | -0.01
GGTTACACGTGTGGGT | 0.24
GATGTCACGTGGAGGA | 0.12
GAGGTCACGTGTGAGG | 0.27

Sequence | relative binding free energy [kcal/mol]
GCAGTCACGTGGGGAG | -0.01
ATGCGCACGTGCAGGG | -0.17
TGGGTCACGTGGCTAG | 0.24
GCTGGCACGTGATGGA | 0.02
CCAGGCACGTGGGGTG | -0.32
GGTGGCACGTGTAGAT | 0.24
TTGTTCACGTGGTCGC | 0.23
AAGGGCACGTGTGCGA | -0.2
AGGAACACGTGCTGGG | -0.04
AGCTGCACGTGTGAGG | 0.1
ATATGCACGTGGGTAG | -0.27
ACAGACACGTGGTTTT | 0.04
GATGGCACGTGAATGA | 0.18
ATTTACACGTGATGTA | 0.15
CGGTGCACGTGATATT | 0.23
TGATTCACGTGTGAGA | 0.34
AAGGCCACGTGGGTAT | -0.12
GGTAGCACGTGATCGT | 0.29
TGGGTCACGTGTTGTC | 0.12
TGTAACACGTGTATAG | 0.08
AAAGGCACGTGATGGG | -0.05

Sequence | relative binding free energy [kcal/mol]
TCTGTCACGTGAGCGT | 0.19
AACTGCACGTGTGTAG | 0.07
GAGGTCACGTGGAGGT | 0.21
TGTTTCACGTGCTAGT | 0.27
GTTCGCACGTGATGAG | 0.12
GAGTACACGTGAGTGT | 0.23
GTAGACACGTGTCGTT | 0.1
GTTTACACGTGCATGT | 0.02
TGGAACACGTGGTCGT | 0.22
CGCTACACGTGGAGGG | 0.1
AGATTCACGTGTAGGT | 0.24
TTGTCCACGTGTTATG | 0.05
TGTGGCACGTGCTGGT | -0.06
GTGATCACGTGACGGG | 0.14
TATTGCACGTGGGAAC | -0.03
ATTGCCACGTGTGGTA | -0.04
CTGTACACGTGGTATA | 0
TTAGTCACGTGGTTGA | 0.07
TTAGTCACGTGTGAAA | 0.23
GGTATCACGTGGGGTT | 0.07
AGTAGCACGTGGGTAT | -0.18

— the BET-seq Pho4 binding data (Le et al. 2018)
